# Test results as given in paper PMC9911399, “Two distinct binding modes provide the RNA-binding protein RbFox with extraordinary sequence specificity”.
# Positions count from the first letter of the chain named. Some of the results follow.
# T1: RBFOX1 RRM (Homo sapiens, UniProt Q9NWB1 109-208)
# T1 sequence: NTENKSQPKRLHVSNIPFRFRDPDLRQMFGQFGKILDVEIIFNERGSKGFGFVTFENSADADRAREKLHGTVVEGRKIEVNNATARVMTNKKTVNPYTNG
# B1: CGCUUCC (DNA:RNA)
# RNA: GGGAGACCGGAAUUCAGAUUGUCCCGCUUCCUUAAAUCCCGUCGUAGCCACCA
# DNA 1: CAATCTGAATTCCGGTCTCCC
# DNA 2: TGGTGGCTACGACGGGATT
# B2: UUUAUGU (DNA:RNA)
# RNA: B1 RNA with C25U, G26U, C27U, U28A, C30G, C31U
# DNA 1: CAATCTGAATTCCGGTCTCCC
# DNA 2: TGGTGGCTACGACGGGATT
# B3: CUUGUCC (DNA:RNA)
# RNA: B1 RNA with G26U, C27U, U28G
# DNA 1: CAATCTGAATTCCGGTCTCCC
# DNA 2: TGGTGGCTACGACGGGATT
# B4: AGGUGAG (DNA:RNA)
# RNA: B1 RNA with C25A, C27G, U29G, C30A, C31G
# DNA 1: CAATCTGAATTCCGGTCTCCC
# DNA 2: TGGTGGCTACGACGGGATT
# B5: UGGGACC (DNA:RNA)
# RNA: B1 RNA with C25U, C27G, U28G, U29A
# DNA 1: CAATCTGAATTCCGGTCTCCC
# DNA 2: TGGTGGCTACGACGGGATT
# B6: GUACCUA (DNA:RNA)
# RNA: GGGAGACCGGAAUUCAGAUUGUCCGUACCUAUUAAAUCCCGUCGUAGCCACCA
# DNA 1: CAATCTGAATTCCGGTCTCCC
# DNA 2: TGGTGGCTACGACGGGATT
# B7: AAACUAG (DNA:RNA)
# RNA: B6 RNA with G25A, U26A, C29U, U30A, A31G
# DNA 1: CAATCTGAATTCCGGTCTCCC
# DNA 2: TGGTGGCTACGACGGGATT
# B8: GUCAGAA (DNA:RNA)
# RNA: B6 RNA with A27C, C28A, C29G, U30A
# DNA 1: CAATCTGAATTCCGGTCTCCC
# DNA 2: TGGTGGCTACGACGGGATT
# B9: UAAUUAG (DNA:RNA)
# RNA: B1 RNA with C25U, G26A, C27A, C30A, C31G
# DNA 1: CAATCTGAATTCCGGTCTCCC
# DNA 2: TGGTGGCTACGACGGGATT
# B10: CGCAGCU (DNA:RNA)
# RNA: B1 RNA with U28A, U29G, C31U
# DNA 1: CAATCTGAATTCCGGTCTCCC
# DNA 2: TGGTGGCTACGACGGGATT
# B11: CUAAGGC (DNA:RNA)
# RNA: B1 RNA with G26U, C27A, U28A, U29G, C30G
# DNA 1: CAATCTGAATTCCGGTCTCCC
# DNA 2: TGGTGGCTACGACGGGATT
# B12: AGGAGAC (DNA:RNA)
# RNA: B1 RNA with C25A, C27G, U28A, U29G, C30A
# DNA 1: CAATCTGAATTCCGGTCTCCC
# DNA 2: TGGTGGCTACGACGGGATT
# B13: AGGUGCC (DNA:RNA)
# RNA: B1 RNA with C25A, C27G, U29G
# DNA 1: CAATCTGAATTCCGGTCTCCC
# DNA 2: TGGTGGCTACGACGGGATT
# B14: CGACACG (DNA:RNA)
# RNA: B1 RNA with C27A, U28C, U29A, C31G
# DNA 1: CAATCTGAATTCCGGTCTCCC
# DNA 2: TGGTGGCTACGACGGGATT
# B15: AUUCGUA (DNA:RNA)
# RNA: B6 RNA with G25A, A27U, C29G
# DNA 1: CAATCTGAATTCCGGTCTCCC
# DNA 2: TGGTGGCTACGACGGGATT
# B16: UUCGCUA (DNA:RNA)
# RNA: B6 RNA with G25U, A27C, C28G
# DNA 1: CAATCTGAATTCCGGTCTCCC
# DNA 2: TGGTGGCTACGACGGGATT
# B17: GCAGUUA (DNA:RNA)
# RNA: B6 RNA with U26C, C28G, C29U
# DNA 1: CAATCTGAATTCCGGTCTCCC
# DNA 2: TGGTGGCTACGACGGGATT
# B18: CGAUUGC (DNA:RNA)
# RNA: B1 RNA with C27A, C30G
# DNA 1: CAATCTGAATTCCGGTCTCCC
# DNA 2: TGGTGGCTACGACGGGATT
# B19: UAUUUCU (DNA:RNA)
# RNA: B1 RNA with C25U, G26A, C27U, C31U
# DNA 1: CAATCTGAATTCCGGTCTCCC
# DNA 2: TGGTGGCTACGACGGGATT
# B20: GGGUCGC (DNA:RNA)
# RNA: B1 RNA with C25G, C27G, U29C, C30G
# DNA 1: CAATCTGAATTCCGGTCTCCC
# DNA 2: TGGTGGCTACGACGGGATT
# Target: T1, RBFOX1 RRM
# Test: EMSA; HiTS-Eq, 1 nM pool, 10 min; buffer printed only for the single-RNA assays: 10 mM Tris pH 7.5, 150 mM NaCl, 3.4 mM EDTA, 0.001% NP-40, 30 C
# Details: tags: His6 N-terminal (pET28a); label: 5' 32P
# Procedure, shortened: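 Purified RbFox RRM (wild type or mutant) was equilibrated for 10 min in 50 µL with 1 nM of a 5′-radiolabelled pool of RNA with 7 randomized nucleotides, its flanks annealed to DNA oligonucleotides, across increasing protein concentrations. Free RNA was separated by 8% native PAGE, excised, reverse-transcribed, PCR-barcoded and sequenced on an Illumina HiSeq 2500. Relative association constants came from read-count changes of each variant against the control reaction, normalised to the cognate motif.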
row,Binder,binding signal
1,B1,0.0114 KA relative to UGCAUGU
2,B2,0.0163 KA relative to UGCAUGU
3,B3,0.0101 KA relative to UGCAUGU
4,B4,0.0128 KA relative to UGCAUGU
5,B5,0.0142 KA relative to UGCAUGU
6,B6,0.00499 KA relative to UGCAUGU
7,B7,0.00102 KA relative to UGCAUGU
8,B8,0.0136 KA relative to UGCAUGU
9,B9,0.0193 KA relative to UGCAUGU
10,B10,0.00757 KA relative to UGCAUGU
11,B11,0.00788 KA relative to UGCAUGU
12,B12,0.00964 KA relative to UGCAUGU
13,B13,0.0151 KA relative to UGCAUGU
14,B14,0.0076 KA relative to UGCAUGU
15,B15,0.00648 KA relative to UGCAUGU
16,B16,0.0124 KA relative to UGCAUGU
17,B17,0.0066 KA relative to UGCAUGU
18,B18,0.0213 KA relative to UGCAUGU
19,B19,0.0068 KA relative to UGCAUGU
20,B20,0.0242 KA relative to UGCAUGU
